This series deals with ATP. Put plainly: switch fluorescence ratio, 500 uM ATP over buffer (Cy3 cluster intensity, sum of 5 cycles each) (fold (ratio)); higher = stronger signal-on switching upon ATP binding; sequences stand for … in TCGTCGGCAGCGTCAGATGTGTATAAGAGACAGTTTTTTTTTTTTTTTTTTTTTTTTT…TC. Conditions: aptamer strand: ATP DNA aptamer (quencher-CACCTGGGGGAGTATTGCGGAGGAAGG + anchor), 100 nM annealed; ATP concentration: 500 uM; one replicate. In short, it runs like this:
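The quencher-labelled ATP aptamer, at 100 nM, was annealed to Cy3-labelled switching-strand clusters on a modified Illumina MiSeq flow-cell. The clusters were imaged in selection buffer, then after 15 min with 500 uM ATP at 22 °C, and this buffer/ATP cycle ran five times with NaOH stripping and re-annealing between runs. Per-cluster fluorescence ratios, summed target-cycle over summed buffer-cycle Cy3 intensity, were averaged per switch-domain sequence. Clusters outside 100-1000 RFU were excluded.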

Sequences with one replicate were seen in a single cluster, so their values are uncertain.
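Also: ATP exposure 15 min at 22 °C before imaging.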

ATTTCAAGTA: the switch fluorescence ratio was 0.997. Then CCCTGGCCGA, with 1.02; and CCTTGAGCTG, with 1.59. Then AGCTCTGTTT, with 1.01; and ATATTGG, with 1.03; and AATAATACTT, with 1.03. With AAGCTTAAAT, the switch fluorescence ratio is 0.967. The same measure for CATAATATAG: 1; for GATAAGAGGA: 0.994; for TTTGTCCGTA: 1.09. Then GATTGCTATA, with 0.998. Then TGACTGATGC, with 1.09; and ATCGTCTCGT, with 0.984. Regarding AGCGTGTGCC, the switch fluorescence ratio came out at 0.971. The same measure for TCATTCCGGC: 1.23; for TGTAACTTAA: 1.07; for GCTCGGGGCA: 0.954.

As to GATTCCGTTC, the switch fluorescence ratio was determined as 1.03.

Turning to GCGGGCATGA, the switch fluorescence ratio was found to be 1.03. Then CCGGTACTT, with 1.13; and ACAACGTTGT, with 0.956. For the sequence AAAACCATGG, the switch fluorescence ratio was found to be 1.01.

As to AATCCAAAGT, the switch fluorescence ratio was 0.996. Then GTGGCTGCCT, with 1.01; and GGTAAAAACA, with 0.998.

On to GTGGAATGAC, for which the switch fluorescence ratio stood at 0.986.

With TAAAGCTGAA, the switch fluorescence ratio is 0.975. Then GGCGTGATCC, with 1.06. Then GATGCAAGCT, with 1.15. The same measure for TCATACTTGT: 1.03. For ACGAGCAGGG, the switch fluorescence ratio was 1.23. Then GTATCTTCTG, with 1. The same measure for AAGGGTCGG: 1.03; for CGGTATGAGC: 0.968; for CGAGTTGTAA: 0.991. The same measure for TCAATTATTC: 1.01; for ATAATTAGG: 0.973. On to AATAGACAGG, for which the switch fluorescence ratio stood at 1.05.

Consider TCATGGAGTC, for which the switch fluorescence ratio was determined as 1.07. Then GACACTCGGG, with 0.984. Then ATATTAACGG, with 1.05; and TAGTAATACA, with 1.62; and GGTCTCCCTT, with 1.15.

In the case of ACGAGCCGGG, the switch fluorescence ratio was 1.04. Then GATTGGGAAG, with 0.996; and GATGGGTGCA, with 0.993; and CGATGATGCG, with 1.02. Then GCTGTGCGTG, with 1.13. The same measure for TTTCCAGCGG: 1.07; for TTGTATTTAT: 0.994; for GCGTAGTCCG: 0.988.

As for CGGGCCCCTT, the switch fluorescence ratio stood at 1.02.

As to CCTGTAAGTT, the switch fluorescence ratio was found to be 1.01.

With GGTCCCGGTA, the switch fluorescence ratio was found to be 1.09. Then GGATCATTCC, with 1.22.

With ATAAAGGAGC, the switch fluorescence ratio worked out at 0.945. The same measure for TACAGGTTCA: 0.945; for CGAGTCATCG: 0.978. AAGGAGGTGT: the switch fluorescence ratio was 1.02.

Take CCGTGCCTTG: the switch fluorescence ratio was 0.986. The same measure for CTCTGTGCGG: 1.09. Then TTGCGAGACG, with 0.949; and TGCCCACGCA, with 1.07; and GGACAACCTT, with 1.68.

On to TTAGGGTTCG, for which the switch fluorescence ratio is 1.08. In the case of TAACAAGGTA, the switch fluorescence ratio amounted to 1.09.

In the case of GGGAAGAGCT, the switch fluorescence ratio stood at 0.968. In the case of AATGTATAGT, the switch fluorescence ratio amounted to 1.03. Then AATACGACAT, with 1.21. The same measure for ACTGTTGTCT: 0.994; for CGGATTATTA: 0.993; for TAGCATGGAG: 0.994.

Turning to GGCGTTGGTA, the switch fluorescence ratio was 1. Then ACGGGAACT, with 1.08; and TAGAGCGATT, with 1.06.

For the sequence TTTCAGCGGT, the switch fluorescence ratio amounted to 0.97. Then ACAGATCCCT, with 0.961; and ATCCGCCTG, with 1.23. The same measure for GGGCGCCAGT: 1. Take CATATTGCCA: the switch fluorescence ratio was 1.01.

For ACCGACGGCG, the switch fluorescence ratio stood at 1.27. The same measure for ATATGATCGT: 1. In the case of CTGCAATATC, the switch fluorescence ratio is 1.24. Take GTCGATCCGT: the switch fluorescence ratio was found to be 0.986. With CAGTACTCGC, the switch fluorescence ratio worked out at 1.18.

Take AGAACCACG: the switch fluorescence ratio stood at 1.06.

Source of the values: the supplement of paper PMC10126150.
